Experimental data as given in patent US20120271036A1 (UNIVERSITY OF ROCHESTER, published 2012).

Target: EloB([…])/EloC([…])/Vif([…]) (human; HIV-1 (group M, subtype B))
Assay: GST pull-down on glutathione resin, SDS-PAGE [panel D]

B1: GST alone (other)
chain: not shown
notes: also called glutathione-S-transferase
binding result: no binding
